Results reported in ChEMBL document CHEMBL4888484, “Replenishing the malaria drug discovery pipeline: Screening and hit evaluation of the MMV Hit Generation Library 1 (HGL1) against asexual blood stage Plasmodium falciparum ,using a nano luciferase reporter read-out” (2022).
Screen size: about 150,000 compounds; about 540 (0.36%) showed an effect of 50% or more. This is one part of the list.

What follows are compounds tested on Plasmodium falciparum (assay: Primary screen in NF54 nanoGlo assay, in single point, at 2uM, 72h; a lower Z score goes with more inhibition). Conditions: timepoint 72 hour.
Type: functional, Erythrocyte

SMILES	% Inhibition	Z score
Cc1nnc(CNc2ccccc2NC(=O)Cc2cccs2)n1C	-6%	0.54
CN1CCCC(CN=C(N)N(C)C2CC2)C1c1cccc(Cl)c1 (stereo not drawn)	0%	0.02
O=C(c1cc(C2CC2)[nH]n1)N1CCCCCC1	1%	-0.15
O=C(Cc1cccc(Cl)c1)N[C@H]1CCCN(c2cc(-c3ccccc3)n[nH]2)C1	7%	-0.66
O=C(CCn1c2c(c3ccccc31)CCCC2)N1CCC2(CCCCO2)CC1	-11%	1.42
Cc1ccc(CN2CC[C@@H](N(C)CCc3ccccn3)CCC2=O)cc1	-11%	1.5
Fc1cccc(CN2CCC[C@@]3(CCN(Cc4cccn4-c4ncccn4)C3)C2)c1F	-8%	1.14
CCc1nc(C2(NCCNS(C)(=O)=O)CCCC2)no1	-8%	0.97
CN1CCC(N2CCN(Cc3ccc(C4CCCC4)s3)C[C@@H]2CCO)CC1	7%	-0.99
Cn1c(C(F)(F)F)nn(CCNS(=O)(=O)CCN2C(=O)CCCC2=O)c1=O	-4%	0.47
NC(=O)N1CCC[C@H](C(=O)OCCc2ccccc2C(F)(F)F)C1	15%	-1.69
O=C(N[C@@H]1[C@@H]2CCO[C@@H]2[C@H]1N1CCCCC1)c1cccc(-c2ccco2)c1	-18%	3.13
COc1ncc(-c2ccc(-c3ccn[nH]3)cc2)c(OC)n1	-13%	1.17
O=C(Cc1ccccc1)Cn1cnc2c(c1=O)CCC2	-10%	1.05
O=C(CC1=CCCCC1)NC[C@H](O)c1ccc(OC(F)F)cc1	-14%	1.53
CC(C)c1ccc(OC/C=C/Cn2ccnc2)cc1	-17%	1.83
N#Cc1cc2c(nc1N1CCC[C@H](C(F)(F)F)C1)CCC2	0%	0.02
Cc1ccn(C)c(=O)c1NCc1ccns1	0%	-0.01
CCc1ccc(OCCN(C)C(=O)CCN2CCCC2=O)cc1	18%	-2.31
O=C1Nc2ccc(S(=O)(=O)N3CCOCC3)cc2C1=O	-16%	2.38
CN(CCN(C)C1CCCC1)C(=O)CCC(=O)c1ccccc1	-10%	1.74
CCc1cccnc1C(=O)N[C@H](c1ncccn1)C1CC1	6%	-0.71
C[C@@H]1NC(=O)[C@@H]2C[C@H](NC(=O)c3cccnc3Oc3ccc(Cl)cc3)CN2C1=O	-9%	1.01
N#C[C@H]1CCCN(C(=O)Nc2cc(C(=O)N3CCOCC3)ccc2Cl)C1	-6%	0.88
CC(O)C1CCN(C(=O)NCCOc2ccc(C(C)(C)C)cc2)C1 (stereo not drawn)	-8%	0.72
CCOc1ccc(CNC(=O)c2cnc3c(-c4cccc(C)c4)c(C)nn3c2C(F)(F)F)cc1	-7%	0.78
Cc1nc(N)nc(-c2cccc(C(=O)N3CCC(F)(F)CC3)c2)c1Cl	-16%	2.29

SMILES	% Inhibition	Z score
O=C(c1cc(=O)c2ccccc2[nH]1)N1C[C@@H]2[C@H]3CC[C@H](CC3)[C@@H]2C1	5%	-1.09
CC(C)Cc1nc(N2CCN(C(=O)C3CCCC3)CC2)c2c(-c3cccc(Oc4ccccc4)c3)noc2n1	-10%	1.24
C=CCN(CC=C)C(=O)CN[C@@H](C)c1cn(C)nc1C	-10%	1
CN(C)[C@@H](CNC(=O)Cn1cccn1)c1ccsc1	-7%	1.31
O=C(O)[C@H]1c2nc[nH]c2CCN1Cc1cccc(Oc2ccccc2)c1	19%	-2.68
CCO[C@@H](C)C(=O)NCCCN(C)c1ccccc1	-3%	0.42
CCCOc1ccc([C@@](C)(C#N)CC#N)cc1	4%	-0.52
c1ccc(C(NCc2cc[nH]n2)C2CCCc3ccccc32)cc1 (stereo not drawn)	-7%	0.75
Cc1cccc(OCc2ccc(C(=O)N3CCOCC3)cc2)c1	-14%	1.53
C[C@H](NCc1c2c(nn1C)CCCC2)c1ccccc1Cl	2%	-0.21
CC(c1cnn(C)c1)c1nc(C2CCOC3(CCC3)C2)no1 (stereo not drawn)	-15%	3.07
CCCCc1nc(N2CCOCC2)c(C#N)c2c1COC(C)(C)C2	-7%	1.09
COc1cccc(N2CCN(C(=O)c3cc4c(=O)n(C)ccc4n3C)CC2)c1	-12%	1.21
COc1ccc(-c2ccnc3nc(C4CC4)nn23)c(F)c1	-4%	0.45
O=C(OC[C@H]1CCCCO1)N1CCC(S(=O)(=O)Cc2ccccc2)CC1	-10%	1.59
COc1ccc(CN2CCN(C(=O)c3ccc4[nH]cnc4c3)CC2)cn1	0%	-0.03
Cc1csc([C@@H](NCc2ccccc2N(C)C)C2CC2)n1	2%	-0.16
CC1CN(CCO)CCN1C(=O)C(O)C1CCC1 (stereo not drawn)	-1%	0.2
COc1nc2c(cc1CNC(=O)CN1CCCCC1)C(=O)N(C1CCCC1)C2	-20%	2.3
CC(NC(C)c1ccccc1Oc1ccccc1)c1cnccn1 (stereo not drawn)	-6%	0.84
O=C(c1cnc2[nH]nnc2c1)N1CCCC2(CCCCC2)C1	-14%	2.41
COc1ccc(CC(=O)Nc2ccc3[nH]c(=O)sc3c2)cc1	2%	-0.29
N#CCCn1cc(CN2CCS(=O)(=O)CC2)c(-c2ccccc2)n1	-7%	1.08
CCN1C(=O)[C@@H]2CC3(CCN(Cc4ccc(C(F)(F)F)cc4)CC3)CN2C1=O	-2%	0.36
CC(C)c1nc(-c2ccc(C(=O)N3CCN(c4nc5ncccc5o4)CC3)cc2)no1	-5%	0.91
Cc1nccn1-c1cc(CNC(=O)c2ccsc2)ccn1	35%	-3.97
O=C(C1CCCO1)N1CCNCC1c1cccnc1 (stereo not drawn)	-10%	1.93
